# In PubChem BioAssay AID1460 (National Center for Advancing Translational Sciences (NCATS), 2008):
# “And” between values parts separate entries of the source, which are not always exact repeats. Identical values can stand only once. Hit rate of the full screen: of about 270,000 compounds, about 5,800 (2.1%) were called active. Inconclusive results, whose numbers are uncertain, are shown with a selection of clear calls. The call rests on the fitted dose curve; in most records, active means well fitted inhibition curve with a large enough effect; inconclusive means small, poorly fitted or top-dose-only effect; inactive means flat fitted curve, though single readings scatter. Potencies of inconclusive entries are doubtful fits and often do not repeat.
# Target: Microtubule-associated protein tau (Homo sapiens) (UniProt P10636)
# Sequence of UniProt P10636 (P10636 whole entry, looked up): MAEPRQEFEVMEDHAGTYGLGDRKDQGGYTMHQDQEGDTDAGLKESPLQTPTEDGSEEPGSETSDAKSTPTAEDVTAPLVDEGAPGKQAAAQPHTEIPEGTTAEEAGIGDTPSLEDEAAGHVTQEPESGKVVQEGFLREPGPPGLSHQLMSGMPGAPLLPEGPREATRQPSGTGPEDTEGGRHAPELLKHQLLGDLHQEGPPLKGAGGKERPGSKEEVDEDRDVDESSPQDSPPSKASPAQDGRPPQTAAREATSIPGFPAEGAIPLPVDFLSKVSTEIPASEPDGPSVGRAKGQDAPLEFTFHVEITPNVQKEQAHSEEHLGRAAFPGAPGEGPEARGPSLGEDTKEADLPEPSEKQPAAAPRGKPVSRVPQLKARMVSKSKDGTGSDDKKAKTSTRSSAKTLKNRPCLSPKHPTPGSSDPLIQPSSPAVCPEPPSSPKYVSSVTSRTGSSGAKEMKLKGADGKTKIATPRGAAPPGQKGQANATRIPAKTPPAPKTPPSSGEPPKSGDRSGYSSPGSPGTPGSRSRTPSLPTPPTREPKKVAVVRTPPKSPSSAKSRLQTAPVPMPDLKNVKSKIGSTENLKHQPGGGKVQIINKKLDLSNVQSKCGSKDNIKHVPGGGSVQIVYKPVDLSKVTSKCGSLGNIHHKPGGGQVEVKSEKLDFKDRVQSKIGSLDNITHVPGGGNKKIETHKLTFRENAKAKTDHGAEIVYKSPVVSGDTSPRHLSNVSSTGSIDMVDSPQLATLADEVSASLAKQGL
# Experiment: qHTS for Inhibitors of Tau Fibril Formation, Thioflavin T Binding; further: nearly all actives have a fitted effect of over 55% in size
# Settings: recombinant tau K18 P301L (four-repeat tau fragment), heparin-induced fibrillization, ThT fluorescence; series mostly up to 57.4 µM
# In short: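 In this qHTS, human K18 P301L tau is incubated with compound and heparin for 6 hr at 37 C, and Thioflavin T fluorescence then reports fibril load.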
# Potency means the concentration at half of the fitted maximal effect; tags describe the fitted curve by direction and shape.
row,SMILES,Potency
1,CCC/C=C/C1C(=O)C2OC2C2(OCC(CC)(CC)CO2)C1CO (configuration not stated),"inconclusive: 3.98 µM [inhibitor, partial curve]"
2,COc1nc(/C=C/N(C)C)c([N+](=O)[O-])c(OC)n1,active: 8.91 µM
3,Cc1ccccc1C(=O)Nc1nnc(CC(=O)N/N=C/c2cn(Cc3ccccc3)c3ccccc23)s1,"inconclusive: 7.94 µM [inhibitor, partial curve]"
4,O=C1CCNc2cc3ccccc3cc21,inactive
5,COc1ccc(Cc2nc(-c3ccc(Br)o3)no2)cc1OC,"inconclusive: 39.8 µM [activator, single point]"
6,Cc1ccc(C)c(NC(=O)CSc2nc3nc(-c4cccs4)cc(C(F)(F)F)c3c(=O)[nH]2)c1,"inconclusive: 39.8 µM [inhibitor, single point]"
7,C=CCN1C(=O)CSC1=Nc1cccc(O)c1,inactive
8,CCN(CC)c1ccc(NC(=O)COCc2cc(-c3ccc4c(c3)OCO4)on2)c(C)c1,active: 2.82 µM
9,COc1ccc(-c2[nH]c(-c3ccc(Cl)cc3)nc2SCC(=O)Nc2nccs2)cc1,"inconclusive: 39.8 µM [inhibitor, single point]"
10,CCOC(=O)Cc1[nH]nc2c1C(c1cc(OC)ccc1OC)C(C#N)=C(N)O2 (configuration not stated),"inconclusive: 31.6 µM [inhibitor, single point]"
11,Cn1c(=O)c2cc(S(=O)(=O)NC(Cc3ccccc3)C(=O)Nc3ccc(F)cc3)ccc2n(C)c1=O (configuration not stated),inactive
12,CCN(CC)c1ccc(/C=C(\C#N)c2ccccn2)cc1,"inconclusive: 1.26 µM [inhibitor, full curve]"
13,COc1ccc(C(=O)/C=C(\C)Nc2ccc(NC(C)=O)cc2)cc1,"inconclusive: 12.6 µM [inhibitor, partial curve]"
14,COc1cccc(C2=NO[C@@H]3C(=O)N(c4ccc5c(c4)OCCO5)C(=O)[C@H]23)c1OC,"inconclusive: 35.5 µM [inhibitor, single point]"
15,Cc1ccc(CN2CN(S(=O)(=O)c3cccs3)c3nc4ccccc4nc32)cc1,"inconclusive: 12.6 µM [inhibitor, partial curve]"
16,O=C(O)c1ccccc1C(=O)N1N=C2/C(=C/c3cccc([N+](=O)[O-])c3)CCCC2C1c1cccc([N+](=O)[O-])c1 (configuration not stated),"inconclusive: 39.8 µM [inhibitor, single point]"
17,O=c1oc2ccccc2c(N2CCCCC2)c1CN1CCCCC1,inactive
18,Cc1cc(NC(=O)CSc2n[nH]c(N)n2)no1,inactive
19,COc1ccc(NC(=O)Cn2ccn(-c3ccc(F)c(F)c3)c(=O)c2=O)cc1Cl,"inconclusive: 39.8 µM [inhibitor, single point]"
20,N#C/C(=C\c1ccco1)Sc1nc2ccccc2s1,inactive
21,CC1=NNC(=O)/C1=C\c1cn(-c2ccccc2)nc1-c1ccc(Cl)cc1,"inconclusive: 28.2 µM [inhibitor, partial curve]"
22,CC(C)OC(=O)c1c(NC(=O)c2cccc(C(F)(F)F)c2)sc2c1CCCC2,inactive
23,Cn1cc(-c2cc3n(n2)CCC(=O)N3CCCC(=O)Nc2ccc(Cl)cc2)c2ccccc21,"inconclusive: 11.2 µM [inhibitor, partial curve]"

row,SMILES,Potency
1,COC(=O)[C@H](CCCN=C(N)N)NC(=O)CCCc1c(-c2ccccc2)[nH]c2c(F)cc(F)cc12,inactive
2,NC(C(=O)O)c1cccc(O)c1 (configuration not stated),inactive
3,COc1ccc(-c2csc(-c3cccnc3)n2)cc1C,"inconclusive: 5.01 µM [inhibitor, partial curve]"
4,C1=C(c2ccccc2)CCN(c2nc3ccccc3n3cnnc23)C1,"inconclusive: 20 µM [inhibitor, partial curve]"
5,O=C(Nc1nc(-c2ccc3c(c2)OCO3)cs1)c1ccncc1,"inconclusive: 14.1 µM [inhibitor, partial curve]"
6,COc1cc(/C=C(\CC(=O)O)c2nc3ccccc3s2)cc(OC)c1O,"inconclusive: 10 µM [inhibitor, partial curve]"
7,O=C(O)c1ccc(/C=C2\SC(=S)N(Nc3ccccc3)C2=O)cc1,"inconclusive: 20 µM [inhibitor, partial curve, poor fit]"
8,CC(C)c1ccc(/C=N/Nc2cc(N3CCOCC3)nc(N3CCOCC3)n2)cc1,"inconclusive: 22.4 µM [inhibitor, partial curve]"
9,CCNc1nc(SC(C)C(=O)OC)nc(N2CCOCC2)n1 (configuration not stated),inactive
10,N#C/C(=C/c1ccc(Sc2nc3ccccc3[nH]2)o1)c1ccccc1F,"inconclusive: 7.94 µM [inhibitor, partial curve]"
11,CCCCCOc1ccc(/C=c2\sc3nc(=O)c(-c4ccccc4)nn3c2=O)cc1OC,"inconclusive: 6.31 µM [inhibitor, partial curve]"
12,Cc1nc2ccc(NC(=O)N3CCC(c4ccccc4)C3)cc2nc1C (configuration not stated),"inconclusive: 22.4 µM [inhibitor, single point]"
13,COc1ccc2oc(=Nc3ccccc3)c(-c3nc4ccccc4[nH]3)cc2c1,"inconclusive: 15.8 µM [inhibitor, partial curve]"
14,COc1ccc(C(=O)Oc2c(Sc3ccccc3)c(C)nn2-c2ccccc2)c(OC)c1,"inconclusive: 17.8 µM [inhibitor, partial curve, poor fit]"
15,COc1cccc(N2CCN(C(=O)c3cnc4c(-c5ccc(F)cc5)c(C)nn4c3C)CC2)c1,"inconclusive: 22.4 µM [inhibitor, single point]"
16,COc1ccc(NC(=O)/C(C#N)=C/c2ccc3c(c2)n(C)c(=O)n3C)cc1,"inconclusive: 0.631 µM [inhibitor, full curve]"
17,Cc1nn(-c2ccccn2)c2c1C(c1c(F)cccc1Cl)C1=C(N2)c2ccccc2C1=O (configuration not stated),"inconclusive: 11.2 µM [inhibitor, partial curve]"
18,CCOC(=O)C(C)N1C(=O)S/C(=C/c2ccc3c(c2)n(C)c(=O)n3C)C1=O (configuration not stated),inactive
19,CCC(=O)c1c(OCc2ccccc2)ccc2c(C)cc(=O)oc12,"inconclusive: 15.8 µM [inhibitor, partial curve, poor fit]"
20,CCc1ccc(NC(=O)c2ccc(OC)c([N+](=O)[O-])c2)cc1,inactive
21,CCCN(C(=O)c1cc2c(=O)oc3ccc(C)cc3c2s1)c1ccc(OCC)cc1,"inconclusive: 31.6 µM [inhibitor, single point]"
22,CCCCN1C(=O)C(O)(CC(=O)c2ccc(CC)cc2)c2cc(Br)ccc21 (configuration not stated),"inconclusive: 17.8 µM [inhibitor, partial curve, poor fit]"
23,O=C(Nc1ccc(NC(=O)C23CC4CC(CC(C4)C2)C3)cn1)c1ccco1,inactive

row,SMILES,Potency
1,O=C(CSc1nnc(C2COc3ccccc3O2)o1)N1CCN(c2ccccc2)CC1 (configuration not stated),"inconclusive: 1.78 µM [inhibitor, full curve]"
2,CC(C)(C)c1cc(CSC(=S)NC2CCS(=O)(=O)C2)c(Br)c(C(C)(C)C)c1 (configuration not stated),inactive
3,CCOC(=O)Cn1c(C)c(Br)c(=O)c2cccc(C)c21,"inconclusive: 17.8 µM [inhibitor, single point]"
4,Cc1ccc(-c2noc(C3CCCN(C(=O)c4ccccc4)C3)n2)o1 (configuration not stated),"inconclusive: 39.8 µM [inhibitor, partial curve, poor fit]"
5,CC(/C=N/n1c(-c2ccccn2)n[nH]c1=S)=C\c1ccccc1,"inconclusive: 22.4 µM [inhibitor, single point]"
6,CCc1nnc(NC(=O)c2sc3nc(C)cc(COC)c3c2N)s1,"inconclusive: 11.2 µM [inhibitor, partial curve]"
7,Cc1cc(NCc2ccncc2)ccc1Br,"inconclusive: 25.1 µM [inhibitor, single point]"
8,COc1ccc(-c2nc3ccccc3n2Cc2ccccc2)cc1,"inconclusive: 31.6 µM [inhibitor, single point] and inconclusive: 20 µM [inhibitor, partial curve]"
9,CCC1=NN(C(=O)c2ccc(C)cc2)C(O)(c2ccc(Br)cc2)C1 (configuration not stated),"inconclusive: 17.8 µM [inhibitor, single point]"
10,O=C(CC1SC(=O)NC1=O)Nc1ccc(Cl)cc1 (configuration not stated),"inconclusive: 17.8 µM [inhibitor, partial curve]"
11,COc1cccc(C2=CC(c3ccccc3F)n3ncc(C(=O)Nc4ccc(F)cc4)c3N2)c1 (configuration not stated),inactive
12,Cc1cccc(N2NC(=O)/C(=C/c3ccc(-c4ccc(Cl)c(C(=O)O)c4)o3)C2=O)c1,active: 7.08 µM
13,Cc1cc(=O)oc(C)c1C(=O)NCc1ccccc1,inactive
14,NC(=O)c1ccc(N=Cc2ccc([N+](=O)[O-])s2)cc1,"inconclusive: 28.2 µM [inhibitor, single point]"
15,O=C(COc1ccc(C2SCCS2)cc1)NNC(=O)C(Cl)Cl,"inconclusive: 25.1 µM [inhibitor, single point]"
16,CSc1nc2c(ccc3ccccc32)o1,inactive
17,Cc1cc(/C=N/NC(=O)C(O)(c2ccccc2)c2ccccc2)c(C)n1-c1ccc(C(=O)O)cc1,inactive
18,COc1cc2c(cc1OC)-c1cc3ccc(OC)c(OC)c3c[n+]1CC2,"inconclusive: 17.8 µM [inhibitor, partial curve]"
19,O=C(NCCc1ccc(F)cc1)Nc1ccc2c(c1)OCO2,"inconclusive: 1.26 µM [inhibitor, full curve, poor fit]"
20,COc1ccccc1C(=O)NC1(C(F)(F)F)NC(=O)N(CCc2ccccc2)C1=O (configuration not stated),"inconclusive: 5.01 µM [inhibitor, partial curve]"
21,CCOCCCNC(=O)C(c1ccc(C)cc1)N(Cc1ccc2c(c1)OCO2)C(=O)c1ccccc1O (configuration not stated),inactive
